The text below walks through data of patent publication US20100113379A1, “cAMP DEPENDENT INDUCTION OF AUTOPHAGY” (priority 2007, published 2010).

Where two headings read alike, the source gives them in different places.

The experiment relates to stable inducible PC12 cell line expressing A53T α-synuclein.
[1] abbreviates: stable PC12, doxycycline 48 h, switched off 24 h, compounds all 1 μM, DMSO control, FIG. 1.
Where [2] appears, read: stable PC12, 24 h, 1 μM rilmenidine, 500 μM 2′5′ ddA, 24 μM forskolin, 1 mM db-cAMP, water control, FIG. 8.
The mark [3] stands for this setting: cAMP analogues, 1 μM/10 μM listed.

In the case of `COC(=O)C1=C(C)NC(C)=C([N+](=O)[O-])C1c1ccccc1C(F)(F)F` (racemic) [(±)-Bay K8644], the “A53T α-synuclein clearance” value under setting [1] is “retarded”.
Take calpastatin: for the setting “10 nM PACAP with or without 10 μM calpastatin or 500 μM 2′5′ ddA, 24 h, FIG. 17”, the “effect on PACAP-retarded A53T α-synuclein clearance” value was “not blocked”.
For `CCCCCCOC(=O)[C@]1(O)C[C@@H]2O[C@@]1(C)n1c3ccccc3c3c4c(c5c6ccccc6n2c5c31)C(=O)NC4` [KT 5720], under “stable PC12, 1 μM KT5720, 24 h, DMSO control, FIG. 10”, the “A53T α-synuclein clearance” value is reported as “did not enhance”.
For `Clc1cccc(Cl)c1NC1=NCCN1` [clonidine, N-(2,6-dichlorophenyl)-4,5-dihydro-1H-imidazol-2-amine], the “A53T α-synuclein clearance” value under setting [1] is on record as “enhanced”.
With `C1COC(NC(C2CC2)C2CC2)=N1` [rilmenidine, 2-[N-(Dicyclopropylmethyl)amino]oxazoline hemifuramate], under setting [2], the “A53T α-synuclein clearance” value is given as “enhance”.
The same measure, in the same setting: next, `C[C@H]1O[C@@H](n2cnc3c(N)ncnc32)C[C@@H]1O` [2′5′ddA, 2′5′-dideoxyadenosine]: “enhanced”.
In the case of “PACAP: pituitary adenylate cyclase-activating polypeptide, natural ligand activating Gsα; PACAP 38, Ovine from Calbiochem”, the “A53T α-synuclein clearance” value (1 μM or 10 nM PACAP, FIG. 16) is reported as “retarded”.
Take `CCCC(=O)Nc1ncnc2c1ncn2[C@@H]1O[C@@H]2COP(=O)(O)O[C@H]2[C@H]1OC(=O)CCC` [dibutyryl cAMP, N^6,2-O-Dibutyryl-cAMP]: the “A53T α-synuclein clearance” value under setting [2] is given as “opposite effects”.
Take `O=C(Nc1ncnc2c1ncn2[C@@H]1O[C@@H]2COP(=O)(O)O[C@H]2[C@H]1O)c1ccccc1` [6-Bnz-cAMP, N^6Benzoyl-cAMP]: the “A53T α-synuclein clearance” value under setting [3] is reported as “no effects”.
Consider `Nc1cc(N2CCCCC2)nc(N)[n+]1[O-]` [minoxidil, 6-(1-Piperidinyl)-2,4-pyrimidinediamine 3-oxide], for which, under setting [1], the “A53T α-synuclein clearance” value is given as “enhanced”.
Turning to `CO[C@@H]1[C@@H]2OP(=O)(O)OC[C@H]2O[C@H]1n1c(Sc2ccc(Cl)cc2)nc2c(N)ncnc21` [8-CPT-2-Me-cAMP, 8-(4-Chlorophenylthio)-2′-0-methyl-cAMP], the “A53T α-synuclein clearance” value under setting [3] is recorded as “slowed”.
Consider rapamycin, for which the “A53T α-synuclein clearance” value (stable PC12, screen, known autophagy inducers, concentration not given) is “enhanced”.
